Source: PubChem BioAssay AID686978 (National Center for Advancing Translational Sciences (NCATS), 2013)
Several values for one entry are separate records, joined by “and”; a condition that tells them apart may be missing. Identical values can stand only once. About 64,000 (15%) of roughly 420,000 compounds were called active. This list was built around the results that the source calls inconclusive (neither active nor inactive); the mix of calls is not that of the screen. Calls follow the shape of the dose curve; as a rule, active = well fitted inhibition curve with a large enough effect; inconclusive = small, poorly fitted or top-dose-only effect; inactive = flat fitted curve, though single readings scatter. Potencies of inconclusive entries are doubtful fits and often do not repeat.

Test: qHTS for Inhibitors of human tyrosyl-DNA phosphodiesterase 1 (TDP1): qHTS in cells in absence of CPT; also: nearly all actives have a fitted effect of over 55% in size
Settings: DT40 Tdp1-/- hTDP1 cells, no CPT, ATP luminescence, 48 h; activity change, negative = growth inhibition: at 46.2 µM (top of the series) unless noted
Method in brief: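 Growth kinetics read by CellTiter-Glo luminescence after ≥48 hr at 37 °C. Cells: DT40 Tdp1-/- stably carrying human TDP1, 400 per well, compound exposure in the absence of CPT (DMSO vehicle).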
% is scaled to controls: 0 for no effect and ±100 for the full control effect; potency is read from the fitted curve at half-maximal effect; tags tell the direction and shape of the fitted curve.

SMILES | Potency | activity change, negative = growth inhibition
COc1cccc(/C=N/NC(=O)CSCC(=O)Nc2ccccc2)c1O | active: 3.16 µM | 
COc1cc(N)c(Cl)cc1C(=O)OCC(=O)Nc1ccc(N2CCOCC2)cc1 |  | inactive: -25.7%
CCn1cc(C2=NOC(C(=O)Nc3ccc4c(c3)OCO4)C2)c(C)n1 (stereo not given) | inconclusive: 18.4 µM [inhibitor, single point] | 
CCc1nnc(NC(=O)CSc2nccn2-c2ccccc2)s1 |  | inactive: -22.3%
C=CCn1c(=NC(=O)C2COc3ccccc3O2)sc2cc(S(N)(=O)=O)ccc21 (stereo not given) | inconclusive: 29.1 µM [inhibitor, single point] | 
Cc1cc(C)n(-c2nc(NCCC(C)C)c3c4c(sc3n2)COC(C)(C)C4)n1 | active: 16.4 µM | 
CCOc1ccc(C2=C(C=Nc3c(C)n(C)n(-c4ccccc4)c3=O)C(c3ccc(F)cc3)c3ccccc3O2)cc1 (stereo not given) | inconclusive: 20.6 µM [inhibitor, single point] | 
NC(=O)CC(NC(=O)c1ccccc1)c1ccc(NCCc2ccc(F)cc2)c([N+](=O)[O-])c1 (stereo not given) | inconclusive: 3.66 µM [inhibitor, full curve] | 
Cc1ccc2nc(SCc3cccc([N+](=O)[O-])c3)nc(C)c2c1 | inconclusive: 20.6 µM [inhibitor, partial curve] | 
O=S1(=O)CC(N2CCN(c3ccccn3)CC2)CN1C1CCCCC1 (stereo not given) |  | inactive: -29.9%
CC(=O)Nc1cccc(NC(=O)Nc2ccc(F)cc2F)c1 | inconclusive: 20.6 µM [inhibitor, single point] | 
Cn1c(-c2ccc(F)cc2)cnc1NCc1ccccc1F | active: 23.1 µM | 
Clc1ccc(OCCSc2ncccn2)c(Br)c1 | inconclusive: 29.1 µM [inhibitor, single point] | 
Cc1ccc(-c2csc(NC(=O)CN3CC(C)OC(C)C3)n2)cc1 (stereo not given) | inconclusive: 29.1 µM [inhibitor, single point] | 
C=CCN=C1S/C(=C\c2ccc(N(C)C)cc2)C(=O)N1CC=C | inconclusive: 23.1 µM [inhibitor, single point] | 
CCOC(=O)C1(Cc2ccc(OC)cc2)CCN(C(=O)c2ccoc2C)CC1 | inconclusive: 25.9 µM [inhibitor, single point] | 
Cc1ccc(-n2c(C)cc(/C=N/NC(=O)c3ccncc3)c2C)cc1C | inconclusive: 29.1 µM [inhibitor, single point] | 
O=C1NC[C@@H](c2ccccc2)OC(=O)[C@@H](Cc2ccc(F)cc2)C/C=C\C[C@@H]1CC(=O)N(CCO)Cc1ccccc1 | active: 16.4 µM | 
COCCNC(=O)c1cc(-c2ccccc2C)n(CC2CC(c3cccc([N+](=O)[O-])c3)=NO2)n1 (stereo not given) | inconclusive: 23.1 µM [inhibitor, single point] | 
CS(=O)(=O)c1sc2nc(-c3ccccc3)cc(-c3ccccc3)c2c1N | inconclusive: 29.1 µM [inhibitor, single point] | 
COCCNc1nc(NCc2ccccc2)nc2ccsc12 | active: 9.2 µM | 
COc1ccc(C(O)C(CN2CCOCC2)c2ccccc2)cc1 (stereo not given) |  | inactive: -9.95%
CCC(C(=O)NC1CCCCCC1)n1nc(C)c2c(C)n(-c3ccccc3)nc2c1=O (stereo not given) | inconclusive: 23.1 µM [inhibitor, partial curve] | 
Cc1ccccc1Cn1cnc2c(cnn2C(C)(C)C)c1=O | inconclusive: 25.9 µM [inhibitor, partial curve] | 

SMILES | Potency | activity change, negative = growth inhibition
CCCC12CN3CC(C)(CN(C1)C3c1cn(C)c3ccccc13)C2=O (stereo not given) | inconclusive: 29.1 µM [inhibitor, single point] | 
COc1ccc(-c2nc(CS(=O)CC(=O)NCc3ccc(Cl)cc3)c(C)o2)cc1OC (stereo not given) | inconclusive: 20.6 µM [inhibitor, single point] | 
Cc1ccc(S(=O)(=O)NCCc2c[nH]c3ccccc23)cc1 |  | inactive: 10.7%
COc1ccc(C(=O)N/N=C/c2c(C)nn(-c3ccccc3)c2OC)cc1 |  | inconclusive: -32.5% [inhibitor]
COc1ccc(S(=O)(=O)Cc2ccc(C(=O)NCCc3cc(OC)ccc3OC)o2)cc1 | inconclusive: 25.9 µM [inhibitor, single point] | 
O=C(Nc1ccccc1)N1CCCC2(CCN(C(=O)c3csnn3)CC2)C1 |  | inactive: -1.07%
Cc1ccc(C)c(Cn2c(CN(C)Cc3ccccc3)nc3c2c(=O)n(C)c(=O)n3C)c1 | active: 14.6 µM | 
COc1ccc(CNCC(=O)Nc2cc(C)nn2-c2nc(C)cc(C)n2)cc1OC | active: 8.2 µM | 
CCN1CCN(C(CNS(=O)(=O)c2ccc(C)cc2)c2ccccc2)CC1 (stereo not given) |  | inactive: 8.93%
CNc1ccc(/C=C2\C=Cc3ccccc32)cc1OC | inconclusive: 20 µM [inhibitor, single point] | 
CCn1c(CN2CCOCC2)nc2cc(NC(=O)c3cc(OC)c(OC)c(OC)c3)ccc21 | inconclusive: 16.4 µM [inhibitor, partial curve] | 
O=C(NCCCCO)C(F)(F)C(F)(F)C(F)(F)C(=O)NCCCCO |  | inactive: 4.75%
Nc1cc(N2CCCC2)c(Cl)cc1[N+](=O)[O-] | inconclusive: 20.6 µM [inhibitor, single point] | 
CC(C)NC(=O)C1C(c2ccc(C(F)(F)F)cc2)=Nc2ccccc2N1C(=O)c1ccco1 (stereo not given) | inconclusive: 29.1 µM [inhibitor, single point] | 
CC(C)C(=O)N=C1SC2CS(=O)(=O)CC2N1Cc1ccccc1 (stereo not given) | inconclusive: 10.3 µM [inhibitor, partial curve, poor fit] | 
CC(C)NCC(O)COCCOc1ccc(Cl)cc1 (stereo not given) | inconclusive: 29.1 µM [inhibitor, single point] | 
CC(C)n1c(=S)[nH]c2ccccc21 |  | inactive: -5.49%
Cc1ccc2nc(SCC(=O)NC3CCCCC3)nc(=O)n2c1 |  | inactive: 14.2%
CC(=O)c1ccc(NC(=O)C2CCC(CNS(=O)(=O)c3ccc4c(c3)CCCC(=O)N4)CC2)cc1 (stereo not given) | inconclusive: 29.1 µM [inhibitor, single point] | 
CCN(CC)C(=O)c1cc2c(=O)oc3ccccc3c2s1 |  | inactive: 5.64%
CC1=C(C(=O)OCc2ccccc2)C(c2ccccc2)NC(=O)N1 (stereo not given) | inconclusive: 32.6 µM [inhibitor, single point] | 
O=C(NCCc1ccccc1)C1CCCN(c2nc3ccccc3s2)C1 (stereo not given) |  | inconclusive: -32.5% [inhibitor]
CCOC(=O)c1ccc(S(=O)(=O)N2CCN(C3CC(=O)N(c4ccccc4C(F)(F)F)C3=O)CC2)cc1 (stereo not given) |  | inactive: -14.1%
O=c1[nH][nH]c2c1[C@H](c1ccc(Cl)cc1)O[C@H](C1CCCC1)C2 | inconclusive: 23.1 µM [inhibitor, partial curve] | 

SMILES | Potency | activity change, negative = growth inhibition
Cc1cc(Oc2ccc(-c3nnc(-c4ccccc4)o3)cc2[N+](=O)[O-])ccc1Cl | inconclusive: 13 µM [inhibitor, partial curve] | 
O=C(Nc1ccc(Br)cc1F)c1ccc2nsnc2c1 | active: 8.2 µM | 
CC1(C)CC(=O)C(N=Nc2ccc(Cl)cc2)=C(O)C1 | inconclusive: 8.2 µM [inhibitor, partial curve] | 
CC1CCN(C(=O)COC(=O)c2ccc3c(c2)OCCO3)CC1 |  | inactive: 2.56%
O=C(NNC(=O)c1cccc2ccccc12)c1ccc2c(c1)OCO2 | inconclusive: 16.4 µM [inhibitor, partial curve] | 
O=C(CN1C(=O)NC2(CCc3ccccc32)C1=O)c1cccs1 (stereo not given) |  | inactive: -5.48%
Cc1ccc(S(=O)(=O)c2nc(S(C)(=O)=O)sc2N2CC(C)OC(C)C2)cc1 (stereo not given) | inconclusive: 6.51 µM [inhibitor, partial curve] | 
Cc1cc2ccccc2c(=O)n1CC(=O)NCC(=O)N(C)C1CCCCC1 |  | inactive: -2.1%
O=c1c2ccccc2nc(-c2cccc(Cl)c2)n1O | inconclusive: 20.6 µM [inhibitor, partial curve] | 
COc1ccc(C(=O)Nc2cccc(NC(=O)c3ccc(OC)cc3OC)n2)c(OC)c1 | active: 2.59 µM | 
CCCCSc1nnc([C@H](CC(C)C)NC(=O)OC(C)(C)C)o1 | inconclusive: 29.1 µM [inhibitor, single point] | 
C[C@@H]1CN([C@H](C)CO)C(=O)CCCn2nncc2CO[C@H]1CN(C)C(=O)c1ccncc1 |  | inactive: -1.43%
Cn1c(=O)c2cc(NC(=O)NCc3ccc(Cl)cc3Cl)ccc2n1Cc1ccccc1 | inconclusive: 25.9 µM [inhibitor, single point] | 
CCc1ccccc1NC(=O)C1CCCN(c2nnc(-n3c(C)ccc3C)s2)C1 (stereo not given) | active: 20.6 µM | 
CCCCSCCCNC(=O)C1CCC(CNS(=O)(=O)c2ccccc2)CC1 (stereo not given) | inconclusive: 29.1 µM [inhibitor, partial curve, poor fit] and inconclusive: 6.51 µM [inhibitor, partial curve] | 
Cc1ccc(-c2nn(CCC(=O)Nc3cccnc3)c(=O)c3ccccc23)cc1 | inconclusive: 29.1 µM [inhibitor, single point] | 
O=C(NCC(c1ccco1)N1CCc2ccccc21)C(=O)Nc1ccccc1F (stereo not given) | active: 18.4 µM | 
O=C(OCCc1cc2ccccc2c(=O)o1)c1ccco1 |  | inactive: -3.66%
c1ccc(-n2ncc3c(NC4CCCCCC4)ncnc32)cc1 | inconclusive: 29.1 µM [inhibitor, single point] | 
O=C(N/N=C/c1cccnc1)c1cc(-c2ccc(Br)cc2)nc2ccccc12 | active: 8.2 µM | 
CCOC(=O)c1cn2nc(Oc3ccc(C(=O)OC)cc3)ccc2n1 | inconclusive: 16.4 µM [inhibitor, partial curve] | 
Cc1ccc2c(c1)NC(=O)[C@@]1(C)[C@@H](c3ccccc3)[C@H]3COc4ccccc4[C@@H]3N1C2=O | inconclusive: 16.4 µM [inhibitor, single point] | 
